Measurements: the supplement of paper PMC10498489
Screen size: about 2,300 compounds; about 330 (14%) showed activity.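 How the source made its calls: active = median modified Z-score above 1.96; inactive = 1.96 or below.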 The entries are a selection whose mix differs from that of the whole data set.

Tested on: HepG2 Srxn1-GFP reporter cells (+30 nM CDDO-Me)
Assay: Srxn1-GFP intensity median modified Z-score relative to plate median; higher = stronger NRF2 / oxidative stress reporter activation, active = hit call of the paper
Conditions: 10 µM; exposure time: 24h
How it was run: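 Each value is the replicate median of a per-plate modified Z-score for GFP intensity in HepG2 Srxn1-GFP BAC reporter cells. The cells (20,000 per well, 96-well plates, three replicate plates) received compound at 10 μM together with an NRF2 activator at 30 nM for 24 h, in ≤0.1% DMSO. Cytoplasmic GFP was quantified per cell from confocal images of formaldehyde-fixed, Hoechst-stained cells, leaving out images with fewer than 100 cells, and scaling used 1.4826 × median absolute deviation.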

| SMILES | Srxn1-GFP intensity median modified Z-score |
| --- | --- |
| CC(=O)OC=C1CSC2C(N)C(=O)N2C1C(=O)O (stereo unspecified) [euspeclibcmpd1380] | inactive: -0.0231 |
| N=c1c2ccccc2[nH]c2ccccc12 [euspeclibcmpd350] | active: 15 |
| NS(=O)(=O)c1cc2c(cc1C(F)(F)F)NC(Cc1ccccc1)NS2(=O)=O (stereo unspecified) [euspeclibcmpd527] | inactive: 0.0905 |
| CC(CN1c2ccccc2Sc2ccccc21)N(C)C (stereo unspecified) [euspeclibcmpd253] | inactive: -0.505 |
| CCCCCCCCCCCCCCCCC(C(=O)O)C(O)(CC(=O)O)C(=O)O (stereo unspecified) [euspeclibcmpd1735] | active: 3.83 |
| CCn1cc(C(=O)O)c(=O)c2cc(F)c(N3CCNCC3)cc21 [euspeclibcmpd215] | inactive: -0.3 |
| O=C(O)c1cc(N=Nc2ccc(S(=O)(=O)N=c3cccc[nH]3)cc2)ccc1O [euspeclibcmpd280] | inactive: -0.614 |
| COc1ccccc1OCCNCC(O)COc1cccc2[nH]c3ccccc3c12 (stereo unspecified) [euspeclibcmpd674] | inactive: 1.52 |
| COc1ccccc1OCCNCC(O)COc1cccc2[nH]c3ccccc3c12 (stereo unspecified) [euspeclibcmpd2429] | inactive: -0.573 |
| COc1ccc(C(C)=O)c(O)c1 [euspeclibcmpd1758] | inactive: -0.216 |
| COc1c(O)cc2c(c1O)[C@@H]1O[C@H](CO)[C@@H](O)[C@H](O)[C@H]1OC2=O [euspeclibcmpd559] | inactive: -0.423 |
| CC(C)=CCCC1(C)C=Cc2c(O)c3c(c(CC=C(C)C)c2O1)OC12C(=CCCC1C(C)(C)O[C@@]2(C=CC(C)C(=O)O)C(=O)O)C3=O (stereo partly specified) [euspeclibcmpd1701] | active: 6.67 |
| CCCCOc1ccc(OCCCN2CCOCC2)cc1 [euspeclibcmpd396] | active: 2.42 |
| COC(=O)/C(=C1\OC(=O)C(c2ccccc2)C1=O)c1ccccc1 (stereo unspecified) [euspeclibcmpd1487] | inactive: 1.05 |
| CC1CCc2cc(F)cc3c(=O)c(C(=O)O)cn1c23 (stereo unspecified) [euspeclibcmpd359] | inactive: -1.08 |
| CCCOc1ccc2[nH]c(=NC(=O)OC)[nH]c2c1 [euspeclibcmpd575] | active: 5.09 |
| CC(C)[C@@H]1CC[C@@H](C)C[C@H]1OC(=O)c1ccccc1 [euspeclibcmpd1363] | inactive: -0.526 |
| S=P(N1CC1)(N1CC1)N1CC1 [euspeclibcmpd572] | inactive: -0.024 |
| CC1=CC(=O)C2C(C)(C)CCC[C@]2(C)[C@@]1(O)CCc1ccoc1 (stereo partly specified) [euspeclibcmpd1719] | active: 17.2 |
| CC(C)(C)NCC(O)c1ccc(O)c(CO)c1 (stereo unspecified) [euspeclibcmpd2249] | inactive: -0.119 |
| CCCCCCCC/C=C\CCCCCCCC(=O)O [euspeclibcmpd2051] | inactive: 0.169 |
| Cn1c(=O)c2c(ncn2C)n(C)c1=O [euspeclibcmpd41] | inactive: 0.0172 |
| CCN(CC)C(=O)C(C#N)=Cc1cc(O)c(O)c([N+](=O)[O-])c1 [euspeclibcmpd861] | inactive: -0.942 |

| SMILES | Srxn1-GFP intensity median modified Z-score |
| --- | --- |
| COc1ccc2cc1Oc1ccc(cc1)C[C@H]1c3c(cc4c(c3Oc3cc5c(cc3OC)CCN(C)[C@@H]5C2)OCO4)CCN1C [euspeclibcmpd1270] | active: 4.85 |
| CN(C)CCC(c1ccc(Cl)cc1)c1ccccn1 (stereo unspecified) [euspeclibcmpd2113] | inactive: 0.115 |
| OCC(O)CN1CCN(c2ccccc2)CC1 (stereo unspecified) [euspeclibcmpd1057] | inactive: -0.56 |
| COc1cc2c(cc1OC)C(=O)OC2 [euspeclibcmpd1660] | inactive: -0.254 |
| CNC(=O)c1c(I)c(NC(C)=O)c(I)c(C(=O)O)c1I [euspeclibcmpd971] | inactive: -0.735 |
| CCC(=O)NCC[C@@H]1CCc2ccc3c(c21)CCO3 [euspeclibcmpd2343] | inactive: 0.605 |
| COc1c2c(cc3occ(-c4ccc5c(c4)OCO5)c(=O)c13)OC(C)(C)C=C2 [euspeclibcmpd1957] | active: 7.5 |
| O=C1C(CCC(O)c2ccc(F)cc2)[C@@H](c2ccc(O)cc2)N1c1ccc(F)cc1 (stereo partly specified) [euspeclibcmpd714] | inactive: 1.03 |
| OC[C@H](O)[C@@H](O)CO [euspeclibcmpd2221] | inactive: -0.0632 |
| CCCC(CCC)C(=O)O [euspeclibcmpd2307] | inactive: 0.135 |
| CCCCCCCCCCCCCCCC(=O)O[C@@H]1[C@@H](O)[C@@H](O)[C@H]([C@H](NC(=O)C2C[C@@H](CCC)CN2C)[C@H](C)Cl)O[C@@H]1SC (stereo partly specified) [euspeclibcmpd1310] | inactive: 0.0886 |
| COc1c(OC)c2occc2c2oc(=O)ccc12 [euspeclibcmpd1321] | inactive: -0.538 |
| CC(C)=CCC/C(C)=C/COc1ccc2ccc(=O)oc2c1 [euspeclibcmpd2330] | inactive: 0.262 |
| Clc1ccccc1C(c1ccccc1)(c1ccccc1)n1ccnc1 [euspeclibcmpd71] | inactive: -0.969 |
| Clc1ccc(COC(Cn2ccnc2)c2ccc(Cl)cc2Cl)cc1 (stereo unspecified) [euspeclibcmpd413] | active: 15.1 |
| CN=C(NC#N)NCCSCc1[nH]cnc1C [euspeclibcmpd338] | active: 3.04 |
| COC1CC2CCC(C)C(O)(O2)C(=O)C(=O)N2CCCCC2C(=O)OC(C(C)CC2CCC(O)C(OC)C2)CC(=O)/C(C)=C/C(C)C(O)C(OC)C(=O)C(C)CC(C)/C=C/C=C/C=C/1C (stereo unspecified) [euspeclibcmpd645] | active: 2.8 |
| C=C(C)C1CC=C(C)CC1 (stereo unspecified) [euspeclibcmpd1249] | inactive: -0.263 |
| CCN(CC)C(=O)N1CCN(C)CC1 [euspeclibcmpd92] | inactive: -0.282 |
| CC(NC(CCc1ccccc1)C(=O)O)C(=O)N1CCCC1C(=O)O (stereo unspecified) [euspeclibcmpd609] | inactive: 0.185 |
| COc1ccc(-n2nc(CCC(=O)N(C)O)cc2-c2ccc(Cl)cc2)cc1 [euspeclibcmpd2352] | inactive: 1.56 |
| CCCSc1ccc2[nH]c(=NC(=O)OC)[nH]c2c1 [euspeclibcmpd630] | active: 3.71 |
| CN1CCN(CC/C=C2\c3ccccc3Sc3ccc(S(=O)(=O)N(C)C)cc32)CC1 [euspeclibcmpd294] | active: 4.72 |
